Assay results reported in PubChem BioAssay AID651820 (National Center for Advancing Translational Sciences (NCATS), 2012).
Out of some 340,000 compounds screened, about 12,000 (3.5%) were called active. The inconclusive results got no clear call from the source; some entries with a clear call stand among them for comparison. The call rests on the fitted dose curve; in most records, active means well fitted inhibition curve with a large enough effect; inconclusive means small, poorly fitted or top-dose-only effect, or another doubt; inactive means no such curve, though single readings can be large or run the other way. Potencies of inconclusive entries are left out as doubtful fits.

Assay: qHTS Assay for Inhibitors of Hepatitis C Virus (HCV)
Details: Huh7.5.1 HCVcc-Cre (HCVcc is cell-culture hepatitis C virus) infection, luciferase reporter, 44 h; activity change, negative = inhibition: at 41.8 µM (top of the series) unless noted
Procedure, shortened: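 After 44 h co-culture of compound, cells and HCVcc-Cre (~0.5 moi), substrate is added for 15 min at room temperature and luciferase measured over 15 sec. Cells were seeded at 1,000/well and pre-cultured 4 h.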
On the % scale 0 is the no-effect control and ±100 the full control effect; potency means the concentration at half of the fitted maximal effect; tags describe the fitted curve by direction and shape.

| Structure (SMILES) | Potency | activity change, negative = inhibition |
| --- | --- | --- |
| CCn1c(SCC(=O)Nc2nccs2)nnc1-c1cc2cccc(OC)c2o1 | inconclusive [inhibitor, single point] | – |
| COc1ccc(C(CNc2ccc(S(C)(=O)=O)cc2[N+](=O)[O-])N(C)C)cc1OC (centres undefined) | active: 3.98 µM | – |
| COc1cccc(-c2cc(C(F)(F)F)nc(N3CCOCC3)n2)c1 | inconclusive [inhibitor, partial curve] | – |
| CC[C@]12c3[nH]c4ccc(Cl)cc4c3CCN1C(=O)[C@@H](CC(=O)NCc1ccc(OC)c(OC)c1)C[C@@H]2C(=O)N1CCN(C(=O)C2CC2)CC1 | inconclusive [inhibitor, full curve] | – |
| O=C(Cc1ccccc1)Nc1cccc(N2CCCC2)c1 | – | inactive: -1.78% |
| O=C(Nc1ccccc1)C1=C[C@H](c2coc3ccccc3c2=O)C[C@H](OCc2ccc(CO)cc2)O1 | – | inactive: -26.1% |
| CCn1cnc2cc(NCc3ccncc3)ccc21 | – | inactive: 1.25% |
| O=c1[nH]c2ccccc2nc1C(F)(F)C(F)F | inconclusive [inhibitor, full curve, poor fit] | – |
| Cc1cccc(NC(=O)CSCC(=O)Nc2cc(Cl)ccc2N2CCN(C)CC2)c1 | inconclusive [inhibitor, partial curve] | – |
| Cc1ccc(-c2cc(-c3ccccc3)cc(-c3ccccc3)[n+]2-c2ccccc2C(=O)O)cc1 | inconclusive [inhibitor, single point] | – |
| CCOc1c2ccc(C(=O)NC3CCCc4ccccc43)cc2nn1CC (centres undefined) | active: 3.55 µM | – |
| C/C(N)=C(/C#N)C(=O)COC(=O)c1cc(-c2cccc(Br)c2)nc2ccccc12 | inconclusive [inhibitor, partial curve] | – |
| Cc1cnc(C(=O)N2CCCC(C(=O)c3ccc(C(F)(F)F)cc3)C2)cn1 (centres undefined) | inconclusive [inhibitor, single point] | – |
| COc1cccc(CNS(=O)(=O)c2c(C)nc3sccn3c2=O)c1 | – | inactive: 7.35% |
| Cc1ccc(S(=O)(=O)N(C)C)cc1NC(=O)CSc1ncc(C(F)(F)F)cc1Cl | inconclusive [inhibitor, partial curve] | – |
| CCOc1ccc(S(=O)(=O)Nc2cccc(C(=O)NCC(c3ccccc3)N(C)C)c2)cc1 (centres undefined) | inconclusive [inhibitor, single point] | – |
| Cc1cc(=O)n(-c2ccc3ccccc3n2)[nH]1 | inconclusive [inhibitor, single point] | – |

| Structure (SMILES) | Potency | activity change, negative = inhibition |
| --- | --- | --- |
| COc1c(Br)cc(C(N)=O)cc1OCc1ccccc1 | inconclusive [inhibitor, single point] | – |
| CCC1(C)Cc2c(sc3nnn(CC(=O)Nc4ccc(C)cc4)c(=O)c23)CO1 (centres undefined) | inconclusive [inhibitor, single point] | – |
| CN1C(=O)N(C)C(=O)C2(Cc3c(ccc4ccccc34)N(C)C2)C1=O | – | inactive: -7.5% |
| Cc1cc(C)c(O)c(-c2n[nH]c3c2C(c2cccc(O)c2)N(Cc2ccco2)C3=O)c1 (centres undefined) | active: 11.2 µM | – |
| COc1ccc(NC(=O)COc2cccc3c2OC(C)(C)C3)cc1OC | active: 6.31 µM | – |
| O=C(Nc1cccnc1)c1ccc([N+](=O)[O-])o1 | inconclusive [inhibitor, single point] | – |
| CCOC(=O)N1CCN(c2c(N3CCN(c4ccccc4F)CC3)c(=O)c2=O)CC1 | inconclusive [inhibitor, single point] | – |
| CCOc1ccccc1C(=O)Nc1ccc(-n2nncc2C(C)(C)C)cc1 | inconclusive [inhibitor, partial curve] | – |
| O=C(NNc1c2ccccc2nc2ccccc12)c1ccc(Cl)cc1 | inconclusive [inhibitor, full curve, poor fit] | – |
| COc1ccccc1N1CCN(C2CCCCC2NS(=O)(=O)c2ccccc2)CC1 (centres undefined) | inconclusive [inhibitor, single point] | – |
| COc1cccc(C(C(=O)NC2CCCCC2)N(C(=O)Cc2cccs2)c2ccc(-n3cnnn3)c(OC)c2)c1 (centres undefined) | inconclusive [inhibitor, single point] | – |
| O=C(c1cc(Cl)ccc1F)N1CCCC(Nc2ccc3c(c2)OCCO3)C1 (centres undefined) | inconclusive [inhibitor, single point] | – |
| C/C(=N\NC(=S)Nc1cccc(C)c1)c1ccco1 | inconclusive [inhibitor, single point] | – |
| CCN(CC)c1ccc(NC2=C(Cl)C(=O)c3ccccc3C2=O)cc1 | inconclusive [inhibitor, full curve] | – |
| CCc1ccc(Nc2ncc3c(n2)CC(C)CC3=O)cc1 (centres undefined) | – | inactive: -3.28% |
| CCOC(=O)c1ccc(NC(=S)N(CCCN2CCCCC2)Cc2ccco2)cc1 | inconclusive [inhibitor, single point] | – |
| Cc1cc(C)nc(SCC(=O)NCc2ccco2)n1 | – | inactive: 11% |
